The shares of active, inactive and inconclusive entries below differ from those in the screen. Potencies of inconclusive entries are left out as doubtful fits. Calls of active or inactive are those of the source. Unless noted, calls follow the shape of the dose curve; as a rule, active = well fitted curve in the direction sought with a large enough effect; inconclusive = small, poorly fitted or top-dose-only effect, or another doubt; inactive = no such curve, though single readings can be large; an effect the other way counts as inactive or inconclusive.
Target: Voltage-gated inwardly rectifying potassium channel KCNH2 (Homo sapiens) (UniProt Q12809)
UniProt Q12809, sequence (Q12809 whole entry, looked up): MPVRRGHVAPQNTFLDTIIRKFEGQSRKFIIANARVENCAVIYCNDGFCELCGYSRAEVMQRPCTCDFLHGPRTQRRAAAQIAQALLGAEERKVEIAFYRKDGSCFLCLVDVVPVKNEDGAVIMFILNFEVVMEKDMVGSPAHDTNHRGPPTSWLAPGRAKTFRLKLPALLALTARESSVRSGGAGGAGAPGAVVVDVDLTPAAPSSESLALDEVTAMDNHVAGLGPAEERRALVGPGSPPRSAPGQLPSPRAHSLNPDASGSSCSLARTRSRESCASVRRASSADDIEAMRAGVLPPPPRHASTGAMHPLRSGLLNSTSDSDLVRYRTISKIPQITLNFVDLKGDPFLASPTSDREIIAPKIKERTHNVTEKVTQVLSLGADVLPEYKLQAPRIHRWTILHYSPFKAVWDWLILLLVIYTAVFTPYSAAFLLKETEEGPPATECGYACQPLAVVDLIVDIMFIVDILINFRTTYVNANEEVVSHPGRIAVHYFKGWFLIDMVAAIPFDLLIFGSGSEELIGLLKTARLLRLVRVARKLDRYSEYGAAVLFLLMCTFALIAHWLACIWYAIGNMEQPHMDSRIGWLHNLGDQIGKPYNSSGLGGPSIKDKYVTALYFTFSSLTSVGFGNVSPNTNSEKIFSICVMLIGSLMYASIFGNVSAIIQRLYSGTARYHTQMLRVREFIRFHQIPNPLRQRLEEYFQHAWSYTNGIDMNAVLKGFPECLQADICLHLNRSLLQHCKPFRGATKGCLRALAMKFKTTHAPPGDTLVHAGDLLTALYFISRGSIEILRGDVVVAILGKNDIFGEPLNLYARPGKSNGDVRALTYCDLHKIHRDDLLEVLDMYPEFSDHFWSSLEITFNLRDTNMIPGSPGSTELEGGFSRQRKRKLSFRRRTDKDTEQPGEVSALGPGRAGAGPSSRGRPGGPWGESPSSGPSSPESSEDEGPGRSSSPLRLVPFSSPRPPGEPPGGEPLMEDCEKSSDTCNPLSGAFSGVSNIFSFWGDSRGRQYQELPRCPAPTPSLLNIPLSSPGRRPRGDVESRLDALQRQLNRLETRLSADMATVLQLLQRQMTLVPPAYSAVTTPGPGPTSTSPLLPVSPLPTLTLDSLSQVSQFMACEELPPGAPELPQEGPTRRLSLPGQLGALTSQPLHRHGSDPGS
Experiment: qHTS Assay for Small Molecule Inhibitors of the Human hERG Channel Activity (AID 588834);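 also: lower thallium flux fluorescence means stronger hERG block; nearly all actives have a fitted effect of over 50% in size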; as to activity change, negative = inhibition: top concentration of the series differs between compounds; % is scaled to controls: 0 for no effect and ±100 for the full control effect
Conditions: U2OS BacMam hERG, FluxOR thallium flux fluorescence; series mostly up to 92.2 µM; activity change, negative = inhibition: at the top concentration
Procedure, shortened: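 Blockade is seen as reduced FluxOR thallium-flux fluorescence in U2OS cells expressing hERG from a BacMam construct, in Opti-MEM with 2% FCS. Concentration-response data fitted to the Hill equation for AC50.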
Potency is read from the fitted curve at half-maximal effect; tags tell the direction and shape of the fitted curve.

Structure (SMILES)	Potency	activity change, negative = inhibition
O=C(Cc1cccs1)N[C@@H]1C(=O)N2C(C(=O)[O-])=C(C[n+]3ccccc3)CS[C@H]12	inconclusive [inhibitor, single point]	
CCCCCCCCCc1ccc(OCCOCCO)cc1	active: 14.1 µM	
Cc1cccc(C(=O)O)c1		inactive: 4.55%

Target: Vitamin D3 receptor (Homo sapiens) (UniProt P11473)
UniProt P11473, sequence (P11473 whole entry, looked up): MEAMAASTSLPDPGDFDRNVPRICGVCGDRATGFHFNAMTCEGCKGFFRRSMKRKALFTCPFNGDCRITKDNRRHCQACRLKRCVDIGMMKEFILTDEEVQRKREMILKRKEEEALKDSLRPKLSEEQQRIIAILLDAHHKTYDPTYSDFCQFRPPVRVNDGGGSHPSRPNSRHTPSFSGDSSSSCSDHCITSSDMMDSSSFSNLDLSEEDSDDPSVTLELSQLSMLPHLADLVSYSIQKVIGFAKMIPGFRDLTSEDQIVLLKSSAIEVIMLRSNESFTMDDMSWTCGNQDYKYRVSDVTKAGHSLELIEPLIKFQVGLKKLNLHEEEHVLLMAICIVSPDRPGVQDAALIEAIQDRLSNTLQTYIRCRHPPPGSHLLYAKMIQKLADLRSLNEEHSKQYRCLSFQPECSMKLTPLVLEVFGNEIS
Experiment: qHTS for Inhibitors of the vitamin D receptor (VDR): Hit Validation in Primary Screen (AID 602199)
Conditions: VDR-coactivator inhibition assay, qHTS confirmation
Procedure, shortened: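 With 800 nM VDR and 5 uM LG19078 agonist present, compounds were incubated 2 h at ambient temperature with Alexa 647-labelled SRC2-3. Displacement was read as polarization at 620/688 nm.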

Structure (SMILES)	Potency
O=C(CCS(=O)(=O)c1nc(-c2ccc3c(c2)OCO3)cc(C(F)(F)F)n1)Nc1ccc(F)cc1F	active: 11.2 µM
O=C(C[n+]1csc2ccccc21)c1cccc([N+](=O)[O-])c1	inconclusive [inhibitor, partial curve]
O=C1CCC(C(=O)Nc2cccc(S(=O)(=O)Nc3ccccc3F)c2)=NN1	inconclusive [inhibitor, full curve]
COC(=O)c1ccccc1NC(=O)CSc1nc2sc3c(c2c(=O)[nH]1)CCCC3	inconclusive [inhibitor, partial curve]
O=C(Nc1ccccn1)c1sc2cc([N+](=O)[O-])ccc2c1Cl	active: 3.36 µM
c1cn2cc(-c3ccc4c(c3)OCO4)nc2s1	inconclusive [inhibitor, full curve]
Nc1ncnc2c1ncn2[C@@H]1O[C@H](CNCc2ccc(-c3cc(C(F)(F)F)ccc3Cl)o2)[C@@H](O)[C@H]1O	inconclusive [inhibitor, partial curve]

Target: Vitamin D3 receptor (Homo sapiens) (UniProt P11473)
Experiment: qHTS for Inhibitors of the vitamin D receptor (VDR): Hit Validation using a Fluorescein Assay (AID 602200)
Conditions: VDR-coactivator binding, fluorescein fluorescence polarization; series mostly up to 57.1 µM; activity change, negative = inhibition: at the top concentration
Procedure, shortened: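 Compounds added to VDR ligand-binding domain (1.5 uM) with agonist LG19078 (5 uM) and 5 nM SRC2-3 fluorescein peptide, final concentrations. After 2 h at ambient temperature, polarization of fluorescein emission (Ex 495 nm/Em 520 nm) measured.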

Structure (SMILES)	Potency
O=C(CCS(=O)(=O)c1nc(-c2ccc3c(c2)OCO3)cc(C(F)(F)F)n1)Nc1ccc(F)cc1F	active: 14.1 µM
O=C(C[n+]1csc2ccccc21)c1cccc([N+](=O)[O-])c1	inconclusive [inhibitor, partial curve]
O=C1CCC(C(=O)Nc2cccc(S(=O)(=O)Nc3ccccc3F)c2)=NN1	inconclusive [inhibitor, partial curve, poor fit]
COC(=O)c1ccccc1NC(=O)CSc1nc2sc3c(c2c(=O)[nH]1)CCCC3	active: 3.98 µM
O=C(Nc1ccccn1)c1sc2cc([N+](=O)[O-])ccc2c1Cl	inconclusive [inhibitor, partial curve]
c1cn2cc(-c3ccc4c(c3)OCO4)nc2s1	inconclusive [inhibitor, partial curve, poor fit]
Nc1ncnc2c1ncn2[C@@H]1O[C@H](CNCc2ccc(-c3cc(C(F)(F)F)ccc3Cl)o2)[C@@H](O)[C@H]1O	inconclusive [inhibitor, single point]

System: not listed separately
Experiment: qHTS for Inhibitors of the vitamin D receptor (VDR): Hit Validation using a Texas Red Assay (AID 602201); as to activity, negative = inhibition: % is scaled to controls: 0 for no effect and ±100 for the full control effect
Conditions: VDR coregulator binding, Texas Red fluorescence polarization, agonist-bound VDR ligand-binding domain; series mostly up to 57.1 µM; activity, negative = inhibition: at the top concentration
Procedure, shortened: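 After a 2-hour room-temperature incubation, polarization of Texas-Red emission was read (Ex 595 nm/Em 615 nm). Final mix contained 7 nM Texas Red, 1.5 uM VDR-LBD and LG19078.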

Structure (SMILES)	Potency	activity, negative = inhibition
O=C(CCS(=O)(=O)c1nc(-c2ccc3c(c2)OCO3)cc(C(F)(F)F)n1)Nc1ccc(F)cc1F	inconclusive [inhibitor, single point]	
O=C(C[n+]1csc2ccccc21)c1cccc([N+](=O)[O-])c1	inconclusive [inhibitor, single point]	
O=C1CCC(C(=O)Nc2cccc(S(=O)(=O)Nc3ccccc3F)c2)=NN1	inconclusive [inhibitor, single point]	
COC(=O)c1ccccc1NC(=O)CSc1nc2sc3c(c2c(=O)[nH]1)CCCC3	inconclusive [inhibitor, partial curve]	
O=C(Nc1ccccn1)c1sc2cc([N+](=O)[O-])ccc2c1Cl	inconclusive [inhibitor, partial curve, poor fit]	
c1cn2cc(-c3ccc4c(c3)OCO4)nc2s1	inconclusive [inhibitor, single point]	
Nc1ncnc2c1ncn2[C@@H]1O[C@H](CNCc2ccc(-c3cc(C(F)(F)F)ccc3Cl)o2)[C@@H](O)[C@H]1O		inactive: -16.2%

System: not listed separately
Experiment: qHTS assay for small molecule agonists of the antioxidant response element (ARE) signaling pathway (AID 651741; active = well fitted activation curve with a large enough effect in the signal ratio; inconclusive = small, poorly fitted or top-dose-only effect, or effect the other way, or a change in a side signal; the % refers to the signal ratio; as to activation: % of control where 0% means no effect)
Conditions: HepG2 ARE-bla reporter, beta-lactamase FRET ratio, 16 h; activation: at 96 µM (top of the series) unless noted
Procedure, shortened: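 Seeding 2,000 ARE-bla HepG2 cells per well preceded a 5 h incubation at 37 C/5% CO2 and a 16 h compound exposure at 37 C. Beta-lactamase reporter activity was then quantified by fluorescence after 2 h with LiveBLAzer B/G FRET substrate.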

Structure (SMILES)	activation	Potency
O=[N+]([O-])c1cccc(Cl)c1	inactive: 4.76%	
O=Cc1ccc(Cl)cc1		inconclusive [activator, single point]
CCC/C(=N\OCC)C1=C(O)CC(O)(CC(C)S(=O)(=O)CC)CC1=O (centres undefined)		active: 54.5 µM
C=CC(=O)OCCOc1ccccc1	inconclusive: 21.1%	
COC(=O)c1ccccc1		inconclusive [activator, partial curve, poor fit]
Fc1ccccc1	inactive: 3.83%	
COC(=O)c1ccccc1C(=O)O	inactive: 3.03%	
O=C1OC(=O)c2cc([N+](=O)[O-])ccc21	inactive: 3.2%	
Cc1cccc(C(=O)O)c1	inactive: -1.73%	
c1ccc(B(c2ccccc2)c2ccccc2)cc1		inconclusive [activator, single point]
CS/C(=N\O)C(=O)N(C)C	inactive: -0.437%	
CCCOC(=O)NCCCN(C)C	inactive: -2.38%	
CC1=CC(C)(C)Nc2ccccc21	inconclusive: 13.5%	inconclusive [activator, single point]
C1=C/CC/C=C/CC/C=C/CC/1	inactive: 3.61%	
